Here are results for 88 molecules from PubChem BioAssay AID463173 (ICCB-Longwood Screening Facility, Harvard Medical School, 2010).

Hit rate of the full screen: of about 52,000 compounds, about 4,300 (8.3%) were called active. Rule as the data show it: active = survival mostly below about 52% (no sharp cut-off); inactive = mostly above about 56%. This is one part of the list.

The subject of this experiment is DeltatarO mutant. The experiment is described as follows: S. aureus survival, RN4220 and DeltatarO strains – OD600, teichoic acid synthesis inhibitors, primary screen (AID 463173). The following applies: S. aureus RN4220 wild type/DeltatarO growth, OD600, 18 h, stronger effect = lower value, screened at 18.75 µg/mL (by protocol).
Regarding `CC(=O)Nc1ccc(NC(=O)CCC(=O)c2ccc(C)cc2)cc1`, the survival is inactive: 81%.

With `CCOc1ccc(-c2nnc(SCC(=O)NCCc3ccccc3)nc2-c2ccc(OCC)cc2)cc1`, the survival is inactive: 69%.

Regarding `COc1cccc(CNc2nc3c(-c4cccc(C)c4)nnn3c3ccccc23)c1`, the survival is inactive: 96%.

As for `Cc1cc(NC(=O)C(C)(C)Oc2ccc(Cl)cc2)cc(-c2nc3ncccc3o2)c1O`, the survival was inactive: 82%.

As for `Cc1ccc(C(=O)Nc2ccc(C(=O)OCc3cc(=O)n4c5c(sc4n3)CCCC5)cc2)cc1`, the survival was inactive: 83%.

For `Cc1c(-c2ccccc2)n(-c2ccccc2O)c2nc3c(c(=O)n(C)c(=O)n3C)n12`, the survival was inactive: 94%.

With `O=S(=O)(c1ccc(-c2cnc(C3CC3)o2)cc1)N1CCN(c2cccc(Cl)c2)CC1`, the survival was inactive: 75%.

Take `COCCn1c(COc2cccc(OC)c2)nnc1SCC(=O)NC1CCCC1`: the survival is inactive: 82%.

In the case of `CCOc1ccccc1C(=O)Nc1cc(-c2ccc(C)cc2)no1`, the survival was inactive: 71%.

Consider `COc1ccccc1CNC(=O)c1cnc2sc(N3CCOCC3)nn2c1=O`, for which the survival was inactive: 107%.

Turning to `COc1ccc(N2CCN(C(=O)Cn3nc(Cc4cccnc4)c4ccccc4c3=O)CC2)cc1`, the survival was inactive: 108%.

Turning to `Cc1ccc(Nc2ncnc3c2nc2n3CCCC2)c(Br)c1`, the survival was inactive: 115%.

For the molecule `COc1ccc(NC(=O)NCC2CCN(Cc3ccccc3F)CC2)c(OC)c1`, the survival was inactive: 96%.

`COC(=O)c1cc(S(=O)(=O)N2CCN(c3ccc(F)cc3)CC2)cn1C`: the survival is active: -5%.

As to `Cn1cc(C(=O)NCCc2ccc(Cl)cc2)c(=O)c2cc(S(=O)(=O)N3CCCCC3)ccc21`, the survival is inactive: 65%.

Turning to `Cc1ccc2c(c1)c(=O)c(S(=O)(=O)c1ccc(C)c(C)c1)cn2CC(=O)Nc1ccccc1`, the survival was inactive: 74%.

On to `O=C(c1ccc2c(c1)N(Cc1ccccc1)C(=O)c1ccccc1S2=O)N1CCC(Cc2ccccc2)CC1` (stereo not drawn), for which the survival is inactive: 77%.

Turning to `CCCOc1ccc(C2=NC(c3ccc(F)cc3)=Nc3ccc(OC)cc3N2)cc1`, the survival was inactive: 58%.

Turning to `CCc1cccc(C)c1NC(=O)C1=C(C)C(=O)OC12CCC(C)CC2` (stereo not drawn), the survival was inactive: 98%.

With `COc1ccccc1Nc1ncc(C(=O)Nc2ccc(OC)c(OC)c2)c2ccccc12`, the survival was active: 43%.

As for `CCN(C(=O)c1cc2cc(Br)cc(OC)c2oc1=O)c1ccccc1`, the survival was inactive: 80%.

Consider `O=C(COC(=O)c1cccs1)Nc1ccccc1`, for which the survival was inactive: 84%.

For `COc1cccc(C2c3c(-c4ccccc4O)n[nH]c3C(=O)N2Cc2cccnc2)c1` (stereo not drawn), the survival is inactive: 84%.

In the case of `O=S(=O)(Nc1ccc(-c2ccc(N3CCCC3)nn2)cc1)c1ccc(OC(F)(F)F)cc1`, the survival is active: -4%.

As for `O=C(NC1CCCCCC1)c1ccc(CS(=O)c2ccc(Br)cc2)o1` (stereo not drawn), the survival was inactive: 72%.

For `O=C(CSCc1ccccc1Cl)N/N=C/c1ccc(O)cc1O`, the survival was inactive: 72%.

Take `COc1ccc(-n2ccn(CC(=O)Nc3ccc(C)c(C)c3)c(=O)c2=O)cc1OC`: the survival was inactive: 81%.

In the case of `COc1ccc(-c2cn3c(n2)sc2cc(C(=O)Nc4ccc(F)cc4Cl)ccc23)cc1`, the survival was inactive: 61%.

Turning to `CCOc1cc2[nH]c(=O)n(CCCC(=O)NCc3ccc(OC)cc3)c(=O)c2cc1OCC`, the survival was inactive: 67%.

`COC(=O)c1c(-c2cccs2)csc1NC(=O)c1cc(OC)c(OC)c(OC)c1`: the survival is inactive: 64%.

As for `CC(C)CCNC(=O)c1nn(C)c2c1CSc1ccccc1-2`, the survival was inactive: 70%.

For `CC1CCCN(S(=O)(=O)c2cc(C(=O)NCc3ccccc3Cl)n(C)c2)C1` (stereo not drawn), the survival was inactive: 79%.

On to `O=C(c1ccc(-n2cnnn2)cc1)N(C1CCCCC1)C1CCCCC1`, for which the survival was inactive: 93%.

`Cc1ccc(F)cc1NC(=O)CCSc1nc(-c2ccco2)cc(C(F)(F)F)n1`: the survival is inactive: 48%.

With `C=Cc1ccc(Cn2c(C(=O)O)c(CNCc3ccccc3)c3ccc(OC)cc32)cc1`, the survival was inactive: 104%.

`Cc1ccc(NC(=O)C(=O)NCC(c2cccnc2)N2CCc3ccccc3C2)cc1` (stereo not drawn): the survival is inactive: 85%.

Turning to `CCc1ccc(-n2nc(C)c3c(C(=O)N4CCN(c5cccc(Cl)c5)CC4)cc(C)nc32)cc1`, the survival was inactive: 99%.

As for `CCOC(=O)c1ccc(NC(=O)CCc2c(C)nc3c(c(C)nn3C(C)(C)C)c2C)cc1`, the survival was active: 55%.

As for `Cc1nn(CC(=O)N2CCN(c3cccc(Cl)c3)CC2)c(=O)c2c1sc1ccccc12`, the survival was inactive: 77%.

Regarding `O=c1sc(Nc2ccccc2)nc2ccccc12`, the survival is inactive: 80%.

Consider `COc1cc(OC)c(NC(=O)NCc2cccn2Cc2ccccc2)cc1Cl`, for which the survival was inactive: 94%.

In the case of `CCOc1cc(C(=O)OCc2cc(=O)n3nc(C4CC4)sc3n2)cc(OCC)c1OCC`, the survival was inactive: 79%.

Regarding `CC(C)CCNC(=O)c1ccc(Cn2c(SCC(N)=O)nc3ccccc3c2=O)cc1`, the survival is active: 46%.

For the molecule `Nc1ncc(Cc2ccccc2)s1`, the survival is inactive: 75%.

Consider `CCc1ccccc1NC(=O)Cn1c(=O)n(-c2ccc(C)c(C)c2)c(=O)c2oc3ccccc3c21`, for which the survival is inactive: 73%.

For the molecule `Cc1ccc(NC(=O)CSCc2cnn(-c3ccccc3)c2-n2cccc2)c(Cl)c1`, the survival was inactive: 63%.

For `COc1ccc(CCNc2nc3ccccc3c3nc(-c4cccc(C)c4)nn23)cc1OC`, the survival is active: 20%.

`COc1cc(Br)ccc1C1C(C(=O)Nc2ccc(C)cc2C)=C(C)Nc2nnnn21` (stereo not drawn): the survival was inactive: 182%.

For `Cc1ccc(CCNC(=O)c2cccc(Nc3nc4ccccc4nc3-n3nc(C)cc3C)c2)cc1`, the survival was inactive: 57%.

For `COc1ccc(S(=O)(=O)NCCc2sc(-c3cccc(C)c3)nc2C)cc1`, the survival was inactive: 96%.

As to `CCCCCn1c(-c2cccc(C)c2)nc2ccccc21`, the survival was active: -2%.

Take `O=C(Nc1ccc2c(c1)OCO2)c1cc(-c2ccc(Cl)cc2)on1`: the survival was inactive: 69%.

Regarding `COc1ccccc1OCC(=O)Nc1c(C(=O)c2ccc(C)cc2)oc2ccccc12`, the survival was inactive: 82%.

Consider `CN(C)C1(CNC(=O)COc2ccc(C(C)(C)C)cc2)CCCCC1`, for which the survival is inactive: 98%.

In the case of `CCOC(=O)c1c(C)[nH]c(C)c1S(=O)(=O)N1CCC(C(=O)NCc2ccc(N(C)C)cc2)CC1`, the survival was inactive: 79%.

For the molecule `COc1ccc(OC)c(CCNC(=O)C(C)n2c(C)c3cnn(-c4ccccc4)c(=O)c3c2C)c1` (stereo not drawn), the survival is inactive: 82%.

With `COc1ccccc1CNS(=O)(=O)c1ccc(N2CCCCS2(=O)=O)cc1`, the survival is inactive: 77%.

As to `COc1ccc(Cl)cc1C(=O)Nc1c2c(nn1-c1ccc(Cl)cc1)CS(=O)(=O)C2`, the survival is inactive: 90%.

Regarding `Cc1cc(C)cc(-n2ccnc(NCc3ccc(F)cc3)c2=O)c1`, the survival is inactive: 96%.

On to `Cc1ccc(S(=O)(=O)NCCc2nnc3ccc(SCC(=O)Nc4ccc(OC(F)(F)F)cc4)nn23)cc1`, for which the survival is inactive: 94%.

Consider `O=C1COc2cc(S(=O)(=O)CCC(=O)N3CCN(c4ccccc4)CC3)c(Cl)cc2N1`, for which the survival was inactive: 100%.

For `CCOc1ccc(NC(=O)Cn2c(=O)c(CNc3ccccc3)cc3cc4c(cc32)OCCO4)cc1`, the survival is inactive: 55%.

In the case of `CCCc1ccc(-c2ccc(C(=O)Oc3ccc(Br)cc3)cc2)nc1`, the survival is inactive: 136%.

As to `COC(=O)c1ccc(CSc2nc3c([nH]c4ccccc43)c(=O)n2-c2cc(C)cc(C)c2)o1`, the survival is active: 8%.

For the molecule `CN(C(=O)Cn1ncc2c1-c1ccccc1OC2)c1ccc(Br)cc1`, the survival is inactive: 66%.

On to `Cc1ccc2oc(-c3ccc(NC(=O)c4cccc(F)c4)c(C)c3)nc2c1`, for which the survival was inactive: 99%.

For `CC(=O)N1c2c(cc(Br)cc2S(=O)(=O)NCc2ccccc2Cl)CC1C` (stereo not drawn), the survival is active: 46%.

`COc1ccc(NC(=O)c2cc(C)nc3c2c(C)nn3-c2cccc(Cl)c2C)c(OC)c1`: the survival is inactive: 88%.

In the case of `COc1cc(NC(=O)N2CCC(CN3CCc4ccccc4C3)CC2)cc(OC)c1`, the survival was inactive: 70%.

Regarding `Cc1ccc(-c2nnc(Nc3cccc(O)c3)c3ccccc23)cc1S(=O)(=O)N1CCCCC1`, the survival is inactive: 60%.

Regarding `CCOc1ccc(OCC)c(NC(=O)c2csc3c2CCCC3)c1`, the survival was active: -2%.

As to `CCOc1ccc(CNC(=O)C2=Cc3cc(Br)ccc3OC2)cc1OC`, the survival is inactive: 71%.

In the case of `COc1ccc(Cl)cc1NC(=O)CSc1nc(=O)[nH]c2c1CCCC2`, the survival is inactive: 76%.

For `COc1ccccc1NC(=O)c1oc2ccccc2c1NC(=O)COc1ccccc1OC`, the survival was inactive: 87%.

Turning to `CCOc1ccc(NC(=O)Cn2cc(C(=O)c3ccccc3)c(=O)c3cc4c(cc32)OCO4)cc1`, the survival is inactive: 72%.

For `Cc1ccc(Cn2c(=O)n(-c3ccc(C)c(C)c3)c(=O)c3c(C)c(C)sc32)cc1`, the survival is inactive: 71%.

As for `COc1ccc(OCC2c3cc(OC)c(OC)cc3CCN2C(=O)COc2ccc(Cl)cc2Cl)cc1` (stereo not drawn), the survival was inactive: 85%.

In the case of `CC(C)NC(=O)C(c1ccccc1)N1Cc2ccccc2C1=O` (stereo not drawn), the survival was inactive: 101%.

As for `CC(C)c1ccc2occ(CC(=O)Nc3ccccc3Cl)c2c1`, the survival was inactive: 85%.

With `Cc1cc(C)nc(/N=C(\N)N2CCc3ccccc32)n1`, the survival is inactive: 79%.

Regarding `Cc1ccc(C)c(NC(=O)Cn2c(=O)n(Cc3ccc4c(c3)OCO4)c(=O)c3oc4ccccc4c32)c1`, the survival is inactive: 74%.

On to `CC1=C(C(N)=O)C(c2cccc(C)c2)n2nc(-c3cccc(C)c3)nc2N1` (stereo not drawn), for which the survival is inactive: 66%.

As to `COc1ccc(-c2noc(CSc3nc(C)cc(=O)[nH]3)n2)cc1OC`, the survival is inactive: 76%.

With `Cc1ccc(CSc2nnc(-n3c(=O)c(C#N)cc4c(=O)n5cc(C)ccc5nc43)s2)cc1`, the survival was inactive: 94%.

For `CCc1ccc(-n2nc(CO)c(C(=O)NCC(c3ccccc3)c3ccccc3)n2)cc1`, the survival is inactive: 51%.

In the case of `Cc1ccc(N(Cc2cc3ccccc3[nH]c2=O)C(=O)c2cccc(Cl)c2)cc1`, the survival was inactive: 83%.

With `Cc1nn(C(=O)c2cc3sc(Br)cc3[nH]2)c(C)c1C`, the survival is inactive: 103%.

As for `Cc1ccc(-c2cn3c(n2)sc2cc(C(=O)NCc4cccs4)ccc23)c(C)c1`, the survival is active: 41%.
